± gives the standard error. Variants at the background level are over-represented here.
B1: glmS ribozyme (parent)
chain: AUAAAAGCGCCAGAACUACAGAAAUGUAGUUGACGAGGAGGAGGUUUAUCGAAUUUUCGGCGGAUGCCUCCAAA

Tests used:
Details in all cases: with glucosamine-6-phosphate
glucosamine-6-phosphate [1] = variants of: B1; test: self-cleavage kobs at 40 uM GlcN6P; higher = faster cleavage; RNA array
Outline: (§1)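 Glucosamine-6-phosphate (40 μM to 10 mM) in HEPES/KCl/Mg(OAc)2 buffer was flowed over sequenced MiSeq chips, and tiles were imaged over ~14 h. Barcoded ribozyme variants there had been transcribed in situ by E. coli RNA polymerase and were tracked through a hybridised Cy3 probe at 37 °C. One- or two-exponential decay fits to per-tile medians, normalised to baseline and to non-cleaving reference variants, gave kobs. kcat and KM came from weighted Michaelis–Menten fits across concentrations.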

glucosamine-6-phosphate [2] = variants of: B1; test: self-cleavage kobs at 640 uM GlcN6P; higher = faster cleavage; RNA array
Outline: as §1

glucosamine-6-phosphate [3] = variants of: B1; test: self-cleavage kobs at 2500 uM GlcN6P; higher = faster cleavage; RNA array
Outline: as §1

glucosamine-6-phosphate [4] = variants of: B1; test: self-cleavage kobs at 10000 uM GlcN6P; higher = faster cleavage; RNA array
Outline: as §1

glucosamine-6-phosphate [5] = variants of: B1; test: self-cleavage kobs at 160 uM GlcN6P; higher = faster cleavage; RNA array
Outline: as §1

Variant | self-cleavage kobs at 40 uM GlcN6P (glucosamine-6-phosphate [1]) | self-cleavage kobs at 640 uM GlcN6P (glucosamine-6-phosphate [2]) | self-cleavage kobs at 2500 uM GlcN6P (glucosamine-6-phosphate [3]) | self-cleavage kobs at 10000 uM GlcN6P (glucosamine-6-phosphate [4]) | self-cleavage kobs at 160 uM GlcN6P (glucosamine-6-phosphate [5])
G37A U54A | 7.84e-05 ± 1.8e-05 s⁻¹ | – | – | – | –
G37C A39C A52G | < 1e-05 s⁻¹ | < 1e-05 s⁻¹ | < 1e-05 s⁻¹ | < 1e-05 s⁻¹ | –
G37C A48C C50A U69A | < 1e-05 s⁻¹ | – | – | – | –
G37U A52U | < 1e-05 s⁻¹ | < 1e-05 s⁻¹ | < 1e-05 s⁻¹ | – | –
G37U G38C | < 1e-05 s⁻¹ | – | < 1e-05 s⁻¹ | – | < 1e-05 s⁻¹
G37U U56A | < 1e-05 s⁻¹ | – | – | < 1e-05 s⁻¹ | –
G38A A53U | < 1e-05 s⁻¹ | < 1e-05 s⁻¹ | – | – | –
G38A C61U | < 1e-05 s⁻¹ | – | – | – | –
G38A G40C | < 1e-05 s⁻¹ | < 1e-05 s⁻¹ | – | < 1e-05 s⁻¹ | < 1e-05 s⁻¹
G38A G44U | < 1e-05 s⁻¹ | < 1e-05 s⁻¹ | < 1e-05 s⁻¹ | < 1e-05 s⁻¹ | < 1e-05 s⁻¹
G38A G63C U65C | < 1e-05 s⁻¹ | – | < 1e-05 s⁻¹ | < 1e-05 s⁻¹ | –
G38A U45C | < 1e-05 s⁻¹ | < 1e-05 s⁻¹ | < 1e-05 s⁻¹ | < 1e-05 s⁻¹ | < 1e-05 s⁻¹
G38C C67U | < 1e-05 s⁻¹ | – | < 1e-05 s⁻¹ | < 1e-05 s⁻¹ | –
G38C U46C | < 1e-05 s⁻¹ | < 1e-05 s⁻¹ | < 1e-05 s⁻¹ | < 1e-05 s⁻¹ | –
G38C U47A | < 1e-05 s⁻¹ | – | < 1e-05 s⁻¹ | – | < 1e-05 s⁻¹
G38C U54C | < 1e-05 s⁻¹ | < 1e-05 s⁻¹ | – | – | –
G38C U56C | < 1e-05 s⁻¹ | – | < 1e-05 s⁻¹ | < 1e-05 s⁻¹ | < 1e-05 s⁻¹
G38U G41U | < 1e-05 s⁻¹ | < 1e-05 s⁻¹ | < 1e-05 s⁻¹ | < 1e-05 s⁻¹ | < 1e-05 s⁻¹
G38U G43U | < 1e-05 s⁻¹ | < 1e-05 s⁻¹ | < 1e-05 s⁻¹ | < 1e-05 s⁻¹ | < 1e-05 s⁻¹
G38U U49G U56G | < 1e-05 s⁻¹ | – | < 1e-05 s⁻¹ | < 1e-05 s⁻¹ | –
A39G G60A | < 1e-05 s⁻¹ | – | – | – | –
A39U A42C C50G C70G | < 1e-05 s⁻¹ | – | – | – | –

Variant | self-cleavage kobs at 40 uM GlcN6P (glucosamine-6-phosphate [1]) | self-cleavage kobs at 640 uM GlcN6P (glucosamine-6-phosphate [2]) | self-cleavage kobs at 2500 uM GlcN6P (glucosamine-6-phosphate [3]) | self-cleavage kobs at 10000 uM GlcN6P (glucosamine-6-phosphate [4]) | self-cleavage kobs at 160 uM GlcN6P (glucosamine-6-phosphate [5])
A39U G66C | 5.39e-05 ± 1.3e-05 s⁻¹ | – | – | – | –
A39U U45G | 0.000146 ± 2e-05 s⁻¹ | 0.00165 ± 0.00028 s⁻¹ | 0.00481 ± 0.00079 s⁻¹ | 0.00711 ± 0.00075 s⁻¹ | 0.000471 ± 8.8e-05 s⁻¹
G40A C58U | < 1e-05 s⁻¹ | – | – | – | –
G40A G51A C58G G62U | < 1e-05 s⁻¹ | – | – | – | –
G40A G60U | < 1e-05 s⁻¹ | < 1e-05 s⁻¹ | < 1e-05 s⁻¹ | < 1e-05 s⁻¹ | < 1e-05 s⁻¹
G40A G63U | < 1e-05 s⁻¹ | < 1e-05 s⁻¹ | < 1e-05 s⁻¹ | < 1e-05 s⁻¹ | < 1e-05 s⁻¹
G40C G59C | < 1e-05 s⁻¹ | – | < 1e-05 s⁻¹ | < 1e-05 s⁻¹ | –
G40C G63A C67A | < 1e-05 s⁻¹ | – | – | < 1e-05 s⁻¹ | –
G40U A42C G44U G51U C67U | < 1e-05 s⁻¹ | – | – | < 1e-05 s⁻¹ | –
G40U C50U | < 1e-05 s⁻¹ | < 1e-05 s⁻¹ | – | < 1e-05 s⁻¹ | < 1e-05 s⁻¹
G40U G63U | < 1e-05 s⁻¹ | – | – | – | –
G40U U49C | < 1e-05 s⁻¹ | – | – | – | –
G41A A42C A48U C50G | < 1e-05 s⁻¹ | – | – | < 1e-05 s⁻¹ | –
G41A A64C | < 1e-05 s⁻¹ | < 1e-05 s⁻¹ | < 1e-05 s⁻¹ | < 1e-05 s⁻¹ | < 1e-05 s⁻¹
G41A C68A | < 1e-05 s⁻¹ | < 1e-05 s⁻¹ | < 1e-05 s⁻¹ | < 1e-05 s⁻¹ | < 1e-05 s⁻¹
G41A G43A | < 1e-05 s⁻¹ | < 1e-05 s⁻¹ | < 1e-05 s⁻¹ | < 1e-05 s⁻¹ | –
G41A G51A | < 1e-05 s⁻¹ | < 1e-05 s⁻¹ | < 1e-05 s⁻¹ | < 1e-05 s⁻¹ | < 1e-05 s⁻¹
G41C G43A | < 1e-05 s⁻¹ | < 1e-05 s⁻¹ | – | < 1e-05 s⁻¹ | < 1e-05 s⁻¹
G41C G51A G66A | < 1e-05 s⁻¹ | – | – | < 1e-05 s⁻¹ | –
G41C G62A | < 1e-05 s⁻¹ | < 1e-05 s⁻¹ | < 1e-05 s⁻¹ | < 1e-05 s⁻¹ | < 1e-05 s⁻¹
G41C U49C | < 1e-05 s⁻¹ | < 1e-05 s⁻¹ | < 1e-05 s⁻¹ | – | < 1e-05 s⁻¹
G41U A52U A53C G60C | < 1e-05 s⁻¹ | – | – | – | –

Source: the supplement of paper PMC7125110
